Measured values published in patent publication WO2010064089A1.

Columns and labels:
[1] = target: C-Met-Rluc and C-Met-K1100A-YFP co-expressed in a CHO stable cell line (c-Met dimerization BRET model) (R. reniformis), P08581; test: cell-based or functional assay
[2] = target: C-Met-Rluc expressed with a mutated form of Gab1 fused to YFP in a CHO stable cell line (c-Met activation BRET model) (R. reniformis), P08581; test: cell-based or functional assay

inhibition of HGF induced BRET signal, c-Met dimerization model [1]: 52.2%
inhibition of HGF induced BRET signal, c-Met activation model [2]: 59.9%
B1: [224G11][TH7 Hz1] (antibody)
heavy: QVQLVQSGAEVKKPGASVKVSCKASGYIFTAYTMHWVRQAPGQGLEWMGWIKPNNGLANYAQKFQGRVTMTRDTSISTAYMELSRLRSDDTAVYYCARSEITTEFDYWGQGTLVTVSSASTKGPSVFPLAPSSKSTSGGTAALGCLVKDFPEPVTVSWNSGALTSGVHTFPAVLQSSGLYSLSSVVTVPSSSLGTQTYICNVNHKPSNTKVDKRVEPKSCDCH[human IgG1 Fc not listed]
light: DIVLTQSPDSLAVSLGERATINCKSSESVDSYANSFMHWYQQKPGQPPKLLIYRASTRESGVPDRFSGSGSRTDFTLTISSLQAEDVAVYYCQQSKEDPLTFGGGTKVEIKRTVAAPSVFIFPPSDEQLKSGTASVVCLLNNFYPREAKVQWKVDNALQSGNSQESVTEQDSKDSTYSLSSTLTLSKADYEKHKVYACEVTHQGLSSPVTKSFNRGEC

inhibition of HGF induced BRET signal, c-Met dimerization model [1]: 35.8%
inhibition of HGF induced BRET signal, c-Met activation model [2]: 41.8%
B2: [224G11][TH7 Hz2] (antibody)
heavy: B1 heavy
light: B1 light with L4M, R72G

inhibition of HGF induced BRET signal, c-Met dimerization model [1]: 49.4%
inhibition of HGF induced BRET signal, c-Met activation model [2]: 57.9%
B3: [224G11][TH7 Hz3] (antibody)
heavy: B1 heavy
light: B1 light with L4M, M37L, R72G

Residue numbers refer to the chain shown, from its start. Each block holds one binder with its values, some of them ahead of it.
